Reference: PubChem BioAssay (NCI)
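48-hour exposure; five concentrations; linearly interpolated endpoints. The concentration for 50% growth inhibition is given as GI50. TGI: total growth inhibition.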

Tested on: NCI-H322M lung
Assay: inhibition of tumour cell growth, NCI panel, 48 h

Q: With `COC(=O)C1(C(=O)OC)N=C(C)OC1C(C)C` (configuration not stated) as the compound, how does the TGI read?
A: Its TGI is > 100 µM.

Q: `N#CC(C#N)=C(N)/C(C#N)=C\c1ccnc2ccccc12` was tested. Which TGI did it give?
A: The TGI was > 100 µM.

Q: With `CCN(CC)c1ccc(N=Nc2ccc(-c3nc4cccnc4o3)cc2)cc1` as the compound, how does the TGI read?
A: The TGI was > 100 µM.

Q: With `CCCCC#COP(=O)(OCC)OCC` as the compound, how does the TGI read?
A: Its TGI is > 100 µM.

Q: Which TGI does the source give for `O=C1c2ccccc2CC12Cc1ccc3c(c1C2)CCC3` (configuration not stated) here?
A: Its TGI is 90.7 µM.

Q: With `Nc1nc(-c2cccc([N+](=O)[O-])c2)c(Br)c(=O)[nH]1` as the compound, how does the TGI read?
A: Its TGI is > 100 µM.

Q: For `Cc1c(CCCl)c(=O)n2c([nH]c3ccccc32)c1C#N`, which TGI is on record?
A: Its TGI is 3.16 µM.

Q: For `CC1(C)C=CC[C@]2(C)[C@H]3CC[C@@H]4[C@H]5[C@H](C(=O)/C=C/c6cccnc6)CC[C@]5(CO)CC[C@@]4(C)[C@]3(C)CC[C@@H]12`, which GI50 is on record?
A: Its GI50 is 1.52 µM.

Q: What about the TGI of the same compound?
A: The TGI was 2.9 µM.

Q: How did the TGI turn out when `Cc1ccc2c(c1)OC1Nc3ccccc3C1=C2O` (configuration not stated) was run?
A: Its TGI is > 100 µM.

Q: `COc1ccc2c(c1)CCc1c-2n(CCN(C)C)c2ccc(OC)cc12` was tested. Which TGI did it give?
A: The TGI was 40.1 µM.

Q: For `CCOC(=O)C(C)(C)Oc1ccc2c(=O)cc(-c3ccc(Cl)cc3)oc2c1`, which TGI is on record?
A: The TGI was > 100 µM.

Q: How did the TGI turn out when `NC(N)=N/N=C(/c1nc2ccc([N+](=O)[O-])cc2[nH]c1=O)C(O)c1ccco1` (configuration not stated) was run?
A: Its TGI is > 100 µM.

Q: For `O=C(Nc1ccccc1)c1ccc(Cl)c([N+](=O)[O-])c1`, which TGI is on record?
A: The TGI was 47.4 µM.

Q: How did the TGI turn out when `COc1cc2ccnc3c2c(c1O)N(C)C=C3` was run?
A: The TGI was 33.2 µM.

Q: Which results are given for `C=CC(=O)N1CCCC(n2nc(-c3ccc(Oc4ccccc4)cc3)c3c(N)ncnc32)C1` (configuration not stated)?
A: GI50: 0.11 µM; TGI: 12 µM

Q: `COc1cc(-c2cc(=O)c3cc4c(cc3[nH]2)OCO4)cc(OC)c1OC` was tested. Which TGI did it give?
A: The TGI was > 100 µM.

Q: For `CCOC(=O)c1sc2c(c1OC(=O)c1ccccc1)c(=O)n(-c1ccccc1)c(=S)n2-c1ccccc1`, which TGI is on record?
A: The TGI was > 100 µM.

Q: Which TGI does the source give for `CCOC(=O)c1c(N2CCOCC2)[nH]c(=O)c(C(c2ccc(OC)cc2)c2c(O)c(C(=O)OCC)c(N3CCOCC3)[nH]c2=O)c1O` here?
A: The TGI was > 100 µM.

Q: How did the GI50 turn out when `CCOc1ccc(/C=C/C(=O)c2ccccc2)cc1` was run?
A: The GI50 was 26.7 µM.

Q: And the TGI?
A: The TGI was 75.3 µM.

Q: Which results are given for `COc1cc([C@H](C)c2ccc3ccccc3c2)cc(OC)c1OC`?
A: GI50: 0.762 µM; TGI: > 100 µM

Q: `CCN(CC)CCNc1c(OC)cc(C)c2sc3ccccc3c(=O)c12` was tested. Which TGI did it give?
A: Its TGI is 22.4 µM.

Q: What does the source list for `CC(=O)Oc1cc(C)ccc1[C@]1(C)CC[C@H](C)/C1=C\Br`?
A: GI50: 7.49 µM; TGI: 20.7 µM

Q: `O=C(Nc1ccccc1C(F)(F)F)c1cccc(NC2=C(Cl)C(=O)N(Cc3ccccc3)C2=O)c1` was tested. Which GI50 did it give?
A: The GI50 was 19.1 µM.

Q: And the TGI?
A: The TGI was > 100 µM.

Q: `O=c1[nH]nc(Cc2ccc(Cl)cc2)n1O` was tested. Which TGI did it give?
A: Its TGI is > 100 µM.

Q: For `COC(=O)C(C)Sc1nc2cc(Cl)ccc2s1` (configuration not stated), which TGI is on record?
A: The TGI was > 100 µM.

Q: With `Cc1[nH]c(-c2ccccc2)c(-c2ccc(Cl)cc2)c1C(=O)ONC(=O)c1ccccc1` as the compound, how does the TGI read?
A: Its TGI is 22.7 µM.

Q: How did the TGI turn out when `O=C(c1ccco1)N(C(=S)OCc1ccccn1)c1ccccc1` was run?
A: Its TGI is > 100 µM.

Q: Which results are given for `CCCCCCC/C=C/[C@H]1O[C@]23C(=O)C[C@@]4(C[C@@H](OC5OC(CO)C(O)C(O)C5O)C[C@@H]4[C@H]2C=C1C)OC3=O` (some centres not stated)?
A: GI50: 5.16 µM; TGI: 10.4 µM

Q: Which results are given for `c1ccc2c(c1)[I+]c1ccccc1-2`?
A: GI50: > 50 µM; TGI: > 50 µM

Q: `COc1cc2c(cc1OCc1ccccc1)N=C[C@@H]1C/C(=C/C(=O)NCCCN3C(=O)c4cccc5cccc(c45)C3=O)CN1C2=O` was tested. Which GI50 did it give?
A: The GI50 was 2.04 µM.

Q: And the TGI?
A: The TGI was 8.2 µM.

Q: How did the TGI turn out when `N#CCCN(CCCN(C(=O)Nc1ccccc1)c1ccccc1)C(=O)Nc1ccccc1` was run?
A: Its TGI is > 100 µM.

Q: With `CCCCCCNC(=O)C1=C(C)NC(C)=C(C(=O)NCCCCCC)C1` as the compound, how does the TGI read?
A: Its TGI is > 100 µM.

Q: With `O=C(Oc1ccc(O)c2c(=O)n3c(cc12)[nH]c1ccccc13)c1ccccc1` as the compound, how does the GI50 read?
A: The GI50 was 22.6 µM.

Q: And the TGI?
A: Its TGI is 57.5 µM.

Q: With `O=C(/C=C/c1ccc([N+](=O)[O-])cc1)c1nc2ccccc2[nH]1` as the compound, how does the TGI read?
A: The TGI was > 100 µM.

Q: How did the TGI turn out when `CCOC(=O)C(Cc1ccccc1)(Cc1ccc(O)cn1)NC(=O)c1ccccc1` (configuration not stated) was run?
A: Its TGI is > 100 µM.

Q: How did the TGI turn out when `COc1cc(/C=C2/SC(c3ccccc3)N(c3cccc([N+](=O)[O-])c3)C2=O)cc(OC)c1OC` (configuration not stated) was run?
A: Its TGI is > 100 µM.

Q: Which TGI does the source give for `N#CCCc1nc2ccc(Br)cc2c(=O)n1CCO` here?
A: The TGI was > 100 µM.
